From PMC7150473
Read-outs that look alike come from different tables or passages of the source. These are yes or no findings as the source states them, for the method shown. Binding seen in cells or lysates may run through a third protein. Some results given as binding are weak or reduced against the parent protein; the word gives no strength. Each block holds one molecule with its values, some of them ahead of it.

The chains behind the UniProt entries cited, without tags or fusion partners.
UniProt Q9Y297: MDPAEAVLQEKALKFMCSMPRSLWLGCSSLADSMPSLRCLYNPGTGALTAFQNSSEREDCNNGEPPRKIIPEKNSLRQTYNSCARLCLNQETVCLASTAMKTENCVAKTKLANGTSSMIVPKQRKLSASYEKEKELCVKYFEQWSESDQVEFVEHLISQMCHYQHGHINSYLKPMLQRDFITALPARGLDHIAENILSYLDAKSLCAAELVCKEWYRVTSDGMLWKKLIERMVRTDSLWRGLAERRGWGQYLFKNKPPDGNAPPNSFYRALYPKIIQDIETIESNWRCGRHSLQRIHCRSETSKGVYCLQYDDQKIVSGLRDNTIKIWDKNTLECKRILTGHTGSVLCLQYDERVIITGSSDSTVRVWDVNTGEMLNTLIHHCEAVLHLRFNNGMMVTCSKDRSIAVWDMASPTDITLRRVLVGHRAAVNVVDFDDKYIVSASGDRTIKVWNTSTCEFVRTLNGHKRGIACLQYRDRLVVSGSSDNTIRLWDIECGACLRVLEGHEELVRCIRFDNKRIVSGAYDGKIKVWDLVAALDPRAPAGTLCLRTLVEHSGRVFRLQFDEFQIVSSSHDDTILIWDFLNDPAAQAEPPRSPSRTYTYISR

Tests used:
Flag-YAP1-2γ (human) [1] = molecular target: Flag-YAP1-2γ (human) (UniProt P46937); test: co-IP; HEK293T co-transfected with Flag-YAP1 and the partner; RIPA lysate, 500 μg, antibody beads overnight; IP for Flag (YAP1), immunoblot for the partner; β-TRCP panel in the absence of MG132
Flag-YAP1-1γ (human) [2] = molecular target: Flag-YAP1-1γ (human) (UniProt P46937); test: as above
Flag-YAP1-2γ (human) [3] = molecular target: Flag-YAP1-2γ (human) (UniProt P46937); test: as above; remark: listed apart in the source
Flag-YAP1-1γ (human) [4] = molecular target: Flag-YAP1-1γ (human) (UniProt P46937); test: as above; remark: listed apart in the source
[5] = molecular target: Flag-YAP1-1δ (L3.6-YAP1-1δ cells) (human) (UniProt P46937); test: co-IP; L3.6-YAP1-1δ and L3.6-YAP1-2δ stable cells, LCD for 3 days, then HCD for 24 h; IP for Flag (YAP1), immunoblot for endogenous partners

binding (Flag-YAP1-2γ (human) [1]): binds | binding (Flag-YAP1-1γ (human) [2]): binds
Molecule: HA-tagged β-TRCP (from UniProt Q9Y297 1-605)

binding (Flag-YAP1-2γ (human) [3]): binds | binding (Flag-YAP1-1γ (human) [4]): no binding
B1: PTPN14 (transfected) (enzyme, UniProt Q15678 1-1187)
chain: MPFGLKLRRTRRYNVLSKNCFVTRIRLLDSNVIECTLSVESTGQECLEAVAQRLELRETHYFGLWFLSKSQQARWVELEKPLKKHLDKFANEPLLFFGVMFYVPNVSWLQQEATRYQYYLQVKKDVLEGRLRCTLDQVIRLAGLAVQADFGDYNQFDSQDFLREYVLFPMDLALEEAVLEELTQKVAQEHKAHSGILPAEAELMYINEVERLDGFGQEIFPVKDNHGNCVHLGIFFMGIFVRNRIGRQAVIYRWNDMGNITHNKSTILVELINKEETALFHTDDIENAKYISRLFATRHKFYKQNKICTEQSNSPPPIRRQPTWSRSSLPRQQPYILPPVHVQCGEHYSETHTSQDSIFHGNEEALYCNSHNSLDLNYLNGTVTNGSVCSVHSVNSLNCSQSFIQASPVSSNLSIPGSDIMRADYIPSHRHSAIIVPSYRPTPDYETVMRQMKRGILHTDSQSQSLRNLNIINTHAYNQPEDLVYSQPEMRERHPYTVPYGPQGVYSNKLVSPSDQRNPKNNVVPSKPGASAISHTVSTPELANMQLQGSHNYSTAHMLKNYLFRPPPPYPRPRPATSTPDLASHRHKYVSGSSPDLVTRKVQLSVKTFQEDSSPVVHQSLQEVSEPLTATKHHGTVNKRHSLEVMNSMVRGMEAMTLKSLHLPMARRNTLREQGPPEEGSGSHEVPQLPQYHHKKTFSDATMLIHSSESEEEEEEAPESVPQIPMLREKMEYSAQLQAALARIPNKPPPEYPGPRKSVSNGALRQDQASLPPAMARARVLRHGPAKAISMSRTDPPAVNGASLGPSISEPDLTSVKERVKKEPVKERPVSEMFSLEDSIIEREMMIRNLEKQKMAGLEAQKRPLMLAALNGLSVARVSGREENRVDATRVPMDERFRTLKKKLEEGMVFTEYEQIPKKKANGIFSTAALPENAERSRIREVVPYEENRVELIPTKENNTGYINASHIKVVVGGAEWHYIATQGPLPHTCHDFWQMVWEQGVNVIAMVTAEEEGGRTKSHRYWPKLGSKHSSATYGKFKVTTKFRTDSVCYATTGLKVKHLLSGQERTVWHLQYTDWPDHGCPEDVQGFLSYLEEIQSVRRHTNSMLEGTKNRHPPIVVHCSAGVGRTGVLILSELMIYCLEHNEKVEVPMMLRLLREQRMFMIQTIAQYKFVYQVLIQFLQNSRLI

binding [5]: no binding
B2: PTPN14 (endogenous, L3.6 cells) (enzyme, UniProt Q15678 1-1187)
chain: B1 chain
